# Laboratory results as given in the supplement of paper PMC4967469.
# Lines with a small IC50 respond at low doses; where the fit passes the top or lowest dose, that dose stands as a limit. The AUC spans the tested range (256-fold, ending at the top dose) of the same fit; values near 1 show little effect. For part of these data: An inferred top dose was derived from the fitted curves, not read from the paper. For part of these data: An entry number marks a drug with two screens in the source, which often give different values.
# Tests used:
# Assay in all cases: Viability of human cancer cell lines after 72 h of drug (GDSC screen)
# [1] = compound: Cc1ccc(Nc2cc(-c3cccc(N4C(=O)c5ccccc5C4=O)c3)ncn2)cc1NS(C)(=O)=O [KIN001-270]; details: top dose 20 µM; top dose inferred
# Description: (§1)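 Human cancer cell lines in 384-well plates, medium with 10% serum, drug for 72 h over a 256-fold dose range (nine 2-fold or five 4-fold steps up to the top dose). Adherent lines were fixed and stained with the nucleic acid dye Syto60, suspension lines read with resazurin; signal relative to control wells, capped at 0 and 100%. One two-parameter sigmoid per drug and line, fitted in a mixed model over all curves with the slope shared within a line.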
# [2] = compound: C/C(O)=C(\C#N)C(=O)Nc1cc(Br)ccc1Br [LFM-A13]; details: top dose 16 µM; top dose inferred
# Description: as §1
# [3] = compound: Nc1ccn([C@@H]2O[C@H](CO)[C@@H](O)C2(F)F)c(=O)n1 [Gemcitabine]; details: top dose 1.024 µM
# Description: as §1
# [4] = compound: CC(O)(CS(=O)(=O)c1ccc(F)cc1)C(=O)Nc1ccc(C#N)c(C(F)(F)F)c1 [Bicalutamide]; details: top dose inferred
# Description: as §1
# [5] = compound: CC(C)c1ccccc1Cc1cc(C(=O)Nc2ccc(S(=O)(=O)c3ccccc3C(C)(C)C)cc2)c(O)c(O)c1O [TW-37]; details: top dose 5 µM
# Description: as §1
# [6] = compound: O=S(=O)(c1ccccc1)N(CC(F)(F)F)c1ccc(C(O)(C(F)(F)F)C(F)(F)F)cc1 [T0901317]; details: top dose 10.24 µM; top dose inferred
# Description: as §1
# [7] = compound: S=C(NCc1ccc2c(c1)OCO2)N1CCN(c2ncnc3c2oc2ccccc23)CC1 [MP470]; details: top dose 20 µM; top dose inferred
# Description: as §1
# [8] = compound: Cc1cn(-c2cc(NC(=O)c3ccc(C)c(Nc4nccc(-c5cccnc5)n4)c3)cc(C(F)(F)F)c2)cn1 [Nilotinib]; details: top dose 2 µM
# Description: as §1
# [9] = compound: CCNC(=O)c1noc(-c2cc(C(C)C)c(O)cc2O)c1-c1ccc(CN2CCOCC2)cc1 [AUY922]; details: top dose 0.256 µM; top dose inferred
# Description: as §1
# [10] = top dose 1.024 µM, screen: GDSC drug entry 150
# [11] = top dose 10 µM, screen: GDSC drug entry 1502
Cell Line,AUC [1],IC50 [1] [µM],AUC [2],IC50 [2] [µM],AUC [3],IC50 [3] [µM],"AUC [4, 10]","IC50 [4, 10] [µM]","AUC [4, 11]","IC50 [4, 11] [µM]",AUC [5],IC50 [5] [µM],AUC [6],IC50 [6] [µM],AUC [7],IC50 [7] [µM],AUC [8],IC50 [8] [µM],AUC [9],IC50 [9] [µM]
"OE21 (oesophagus, adherent)",0.972,> 20,0.942,> 16,0.533,0.0814,0.977,> 1.02,0.892,> 10,0.609,0.696,0.978,> 10.2,0.978,> 20,0.918,> 2,–,–
"Daoy (medulloblastoma, adherent)",0.954,> 20,0.962,> 16,0.068,< 0.004,0.989,> 1.02,0.982,> 10,0.428,0.202,–,–,0.54,1.59,0.981,> 2,0.354,0.00658
"STS-0421 (soft tissue, adherent)",–,–,0.87,> 16,0.813,0.67,0.979,> 1.02,0.967,> 10,0.575,0.519,–,–,–,–,0.983,> 2,0.59,0.0295
"HCC-78 (lung adenocarcinoma, adherent)",0.93,> 20,0.977,> 16,0.377,0.0277,0.983,> 1.02,0.981,> 10,–,–,0.951,> 10.2,0.913,> 20,0.962,> 2,0.813,0.169
"DU-145 (prostate, adherent)",0.952,> 20,0.971,> 16,0.15,0.00447,–,–,–,–,0.439,0.209,0.982,> 10.2,0.957,> 20,0.966,> 2,–,–
"AsPC-1 (pancreas, adherent)",0.974,> 20,0.961,> 16,–,–,0.974,> 1.02,0.928,> 10,0.648,1.08,0.964,> 10.2,0.973,> 20,0.964,> 2,0.947,> 0.256
"COLO-783 (melanoma, adherent)",0.989,> 20,0.99,> 16,0.991,> 1.02,0.991,> 1.02,0.987,> 10,–,–,0.986,> 10.2,0.953,> 20,0.991,> 2,0.859,0.199
"HCC70 (breast, adherent)",0.987,> 20,0.921,> 16,–,–,0.985,> 1.02,0.972,> 10,0.624,0.683,0.988,> 10.2,0.97,> 20,0.938,> 2,0.697,0.0567
"ME-180 (cervix, adherent)",0.98,> 20,0.984,> 16,–,–,0.983,> 1.02,0.977,> 10,0.346,0.114,0.934,> 10.2,0.897,> 20,0.975,> 2,0.728,0.0738
"HeLa (cervix, adherent)",0.975,> 20,0.965,> 16,0.663,0.178,–,–,–,–,0.5,0.313,–,–,0.71,4.74,0.976,> 2,0.69,0.053
"MIA-PaCa-2 (pancreas, adherent)",0.972,> 20,0.973,> 16,–,–,0.985,> 1.02,0.983,> 10,0.586,0.552,0.972,> 10.2,0.935,> 20,0.917,> 2,0.479,0.014
"HOS (osteosarcoma, adherent)",0.992,> 20,0.978,> 16,–,–,0.992,> 1.02,0.972,> 10,0.283,0.0861,0.991,> 10.2,0.992,> 20,0.937,> 2,0.335,0.00606
"KMRC-20 (kidney, adherent)",0.981,> 20,0.952,> 16,–,–,–,–,0.984,> 10,0.593,0.566,0.982,> 10.2,0.959,> 20,0.98,> 2,0.983,> 0.256
"HCC1937 (breast, adherent)",0.96,> 20,0.978,> 16,–,–,0.985,> 1.02,0.983,> 10,0.706,1.31,0.984,> 10.2,0.956,> 20,0.95,> 2,0.655,0.0461
"MDA-MB-361 (breast, adherent)",0.984,> 20,0.978,> 16,–,–,0.987,> 1.02,0.985,> 10,0.5,0.312,0.974,> 10.2,0.913,> 20,0.976,> 2,0.569,0.0246
"NCI-H841 (small cell lung carcinoma, adherent)",0.979,> 20,0.981,> 16,0.956,> 1.02,0.988,> 1.02,0.976,> 10,0.372,0.138,0.973,> 10.2,0.81,10.6,0.986,> 2,–,–

Cell Line,AUC [1],IC50 [1] [µM],AUC [2],IC50 [2] [µM],AUC [3],IC50 [3] [µM],"AUC [4, 10]","IC50 [4, 10] [µM]","AUC [4, 11]","IC50 [4, 11] [µM]",AUC [5],IC50 [5] [µM],AUC [6],IC50 [6] [µM],AUC [7],IC50 [7] [µM],AUC [8],IC50 [8] [µM],AUC [9],IC50 [9] [µM]
"HT-29 (large intestine, adherent)",0.982,> 20,0.984,> 16,–,–,0.988,> 1.02,0.985,> 10,0.647,0.796,0.984,> 10.2,0.948,> 20,0.984,> 2,0.67,0.0474
"UM-UC-3 (bladder, adherent)",0.898,> 20,0.957,> 16,–,–,0.988,> 1.02,0.957,> 10,0.395,–,0.947,> 10.2,0.931,> 20,0.977,> 2,0.561,0.0233
"HuO-3N1 (osteosarcoma, adherent)",0.983,> 20,0.908,> 16,–,–,0.98,> 1.02,0.963,> 10,0.753,2.16,0.982,> 10.2,0.977,> 20,0.963,> 2,0.906,> 0.256
"BT-483 (breast, adherent)",0.967,> 20,0.977,> 16,–,–,0.977,> 1.02,0.975,> 10,0.845,> 5,0.97,> 10.2,0.875,> 20,0.974,> 2,0.977,> 0.256
"Capan-2 (pancreas, adherent)",0.985,> 20,0.952,> 16,–,–,0.985,> 1.02,0.982,> 10,0.847,4.93,0.984,> 10.2,0.977,> 20,0.985,> 2,0.52,0.0184
"G-401 (kidney, adherent)",0.93,> 20,0.912,> 16,0.531,0.0786,0.981,> 1.02,0.956,> 10,0.567,0.486,0.969,> 10.2,0.847,16.9,0.975,> 2,–,–
"SNU-387 (liver, adherent)",0.931,> 20,0.963,> 16,–,–,0.982,> 1.02,–,–,0.47,0.255,0.962,> 10.2,0.961,> 20,0.983,> 2,0.752,0.0958
"JHU-029 (head and neck, adherent)",–,–,0.931,> 16,0.443,0.0431,0.98,> 1.02,0.952,> 10,0.55,0.442,–,–,–,–,0.974,> 2,0.403,0.00816
"EFM-19 (breast, adherent)",0.968,> 20,0.933,> 16,0.961,> 1.02,0.975,> 1.02,0.954,> 10,0.715,1.77,0.978,> 10.2,0.977,> 20,0.975,> 2,–,–
"DoTc2-4510 (cervix, adherent)",0.973,> 20,0.957,> 16,0.13,0.00473,0.988,> 1.02,–,–,0.715,1.22,0.986,> 10.2,0.948,> 20,0.975,> 2,–,–
"NCI-H441 (lung adenocarcinoma, adherent)",0.973,> 20,0.941,> 16,–,–,0.977,> 1.02,–,–,0.728,1.85,0.965,> 10.2,0.764,10.3,0.981,> 2,0.717,0.0858
"CAL-72 (osteosarcoma, adherent)",0.984,> 20,0.98,> 16,–,–,0.979,> 1.02,0.947,> 10,0.697,1.24,0.978,> 10.2,0.601,2.49,0.982,> 2,0.874,> 0.256
"H513 (mesothelioma, semi-adherent)",0.986,> 20,0.971,> 16,0.984,> 1.02,0.985,> 1.02,0.984,> 10,0.764,2.19,0.986,> 10.2,0.963,> 20,0.986,> 2,–,–
"KP-2 (pancreas, adherent)",0.984,> 20,0.986,> 16,–,–,0.986,> 1.02,0.942,> 10,0.729,1.49,0.985,> 10.2,0.983,> 20,0.985,> 2,0.72,0.0712
"DOK (head and neck, adherent)",0.968,> 20,0.971,> 16,0.976,> 1.02,0.974,> 1.02,–,–,0.675,1.24,0.973,> 10.2,0.974,> 20,0.946,> 2,–,–
